# About 260 (0.063%) of roughly 410,000 compounds were called active. The shares of active, inactive and inconclusive entries below differ from those in the screen. Calls come from the whole dose curve; as a rule, active = well fitted activation curve with a large enough effect; inconclusive = small, poorly fitted or top-dose-only effect; inactive = no such curve, though single readings can be large or run the other way. No potency is given beside an inconclusive call; the fits are too rough.
# Assay: qHTS for compounds that reverse cellular toxicity of Amyloid beta (A-beta) peptide in yeast: Primary Screen; note: nearly all actives have a fitted effect of over 55% in size
# Conditions: yeast expressing A-beta42, growth rescue, OD600, 48 h; growth rescue: at 46.1 µM (top of the series), 0% DMSO, 100% iron-clioquinol control
# How it was run: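 Growth rescue measured by 600 nm absorbance after 48 h yeast culture at 30 C with compound. Values normalized between DMSO and an equimolar ferric chloride plus clioquinol control.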
# Potency is the fitted concentration of half-maximal effect; tags give direction and shape of the fitted curve.
SMILES,Potency,growth rescue
Fc1ccc(CSc2ncnc3nc[nH]c23)cc1,inactive,–
N#CC1=C(N)Oc2n[nH]c(-c3ccccc3)c2C12C(=O)Nc1ccccc12 (stereo unspecified),"inconclusive [activator, partial curve]",–
CC(C)(C)c1ccccc1NC(=S)NC1CCCC1,"inconclusive [activator, partial curve, poor fit]",–
Cc1ccc(-n2c(C)cc(/C=N/NC(N)=S)c2C)cc1,"inconclusive [activator, full curve]",–
CCCCNC(=O)C1C(c2ccc(OC)cc2)=Nc2ccccc2N1C(=O)c1ccncc1 (stereo unspecified),"inconclusive [activator, single point]",–
Cc1cc(C(=O)Nc2ccc(C(C)C)cc2)c2c(C)nn(-c3ccccc3)c2n1,inactive,–
COc1cc(-c2nnc(SCc3c(F)cccc3Cl)o2)cc(OC)c1OC,inactive,–
CCOc1ccccc1C(=O)Nc1nc2c(s1)CC(C)CC2 (stereo unspecified),inactive,–
CCc1[nH]c(=O)c(C#N)c2c1COC(C)(C)C2,inactive,–
CCNC(=S)N1CCN(c2nc(CC)nc3sc4c(c23)CCCC4)CC1,inactive,–
CCOc1ccccc1NC(=S)N1CCN(c2ccccc2)CC1,"inconclusive [activator, partial curve, poor fit]",–
C=CCNC(=S)N/N=C/c1ccc(C)cc1C,"inconclusive [activator, full curve, poor fit]",–
Cc1cc(=O)n(CC(=O)NCCN2CCOCC2)c2c1c(C)nn2-c1ccccc1,"inconclusive [activator, single point]",–
O=c1[nH]c(NC2CCCCC2)c([N+](=O)[O-])c(=O)[nH]1,–,inconclusive: -11.4% [activator]
COc1cc(C(=S)N2CCN(c3ccccc3Cl)CC2)cc(O)c1O,inactive,–
Nc1nonc1C(=O)N/N=C/c1cc(Br)ccc1O,active: 10 µM,–
O=C(c1[nH]c2ccccc2c1Sc1ccc(Cl)cc1)N1CCCCC1,"inconclusive [activator, single point]",–
CC1CN(C(=O)CCC(=O)NCc2ccc(Cl)cc2)c2ccccc2S1 (stereo unspecified),"inconclusive [activator, single point]",–
COc1cccc(-n2cc(-c3ccc(F)cc3)[nH]c2=S)c1,"inconclusive [activator, partial curve, poor fit]",–
CC(C)(C)c1ccc(OCC(=O)O/N=C(\N)c2ccncc2)cc1,inactive,–
Cc1ccc(NC(=S)Nc2cccc3cnccc23)cc1C,"inconclusive [activator, single point]",–
Cc1cccc(C)c1NC(=S)NC(C)CCc1ccccc1 (stereo unspecified),"inconclusive [activator, partial curve, poor fit]",–
FC(F)C(F)(F)c1cc(-c2ccccc2)n[nH]1,"inconclusive [activator, partial curve, poor fit]",–

SMILES,Potency,growth rescue
CC(C)COc1cccc(C(=O)NNC(=O)C2COc3ccccc3O2)c1 (stereo unspecified),"inconclusive [activator, partial curve, poor fit]",–
COc1ccc(-c2cccc(NC(=O)COc3ccc(Cl)cc3)c2)nn1,inactive,–
COc1cc(C2C3C(C)N(C)C(=O)N(C)C3N(C)C(=O)N2C)ccc1O (stereo unspecified),inactive,–
COc1cc(/C=C2\CCOC2=O)cc(OC)c1OC,inactive,–
O=C(CSc1nnc(-c2cccnc2)n1CCN1CCCCC1)Nc1cccc(Cl)c1,"inconclusive [activator, partial curve, poor fit]",–
CSc1ccc(Cn2c(C)c(C(=O)NCCC#N)sc2=O)cc1,inactive,–
Cc1cc(C)n(CC(=O)N2c3ccccc3Sc3ccccc32)n1,"inconclusive [activator, full curve, poor fit]",–
O=S(=O)(c1ccc2[nH]c3c(c2c1)CCCC3)N1CCCCC1,inactive,–
CN1CCc2c(c3c(n2C)CCN(C)C3c2ccc(F)cc2)C1c1ccc(F)cc1 (stereo unspecified),"inconclusive [activator, full curve, poor fit]",–
CCCCCCN1C[C@@H](n2cc(COC(=O)c3ccccc3)nn2)[C@H](O)C[C@@H]1c1ccccc1,inactive,–
Cc1cccc(CN2C(=O)N/C(=C/c3cc(C)n(-c4ccccn4)c3C)C2=O)c1,inactive,–
Cc1ccc(OCCNC(=O)c2cccc(S(=O)(=O)N3CCN(C)CC3)c2)cc1,inactive,–
O=C(NC(=S)N1CCN(c2nc(-c3ccccc3)cs2)CC1)c1cncc(Br)c1,"inconclusive [activator, partial curve, poor fit]",–
O=C(NCCc1ccc(Cl)cc1)c1ccc(CSCc2ccccc2Cl)o1,"inconclusive [activator, single point]",–
Cc1ccc(S(=O)(=O)Nc2cccc(-c3ccc(N4CCCCC4)nn3)c2)s1,inactive,–
Cc1c(-c2ccc(F)cc2)nc(N)c(C#N)c1-c1cccnc1,"inconclusive [activator, partial curve, poor fit]",–
NC(=O)c1c(NC(=O)c2ccc([N+](=O)[O-])o2)sc2c1CCCC2,–,inconclusive: -55.9% [activator]
CCCn1c(-c2ccc(F)cc2)n[nH]c1=S,"inconclusive [activator, full curve, poor fit]",–
CC1=NN(C(=O)c2ccccc2F)C(O)(c2ccc(Cl)cc2)C1 (stereo unspecified),"inconclusive [activator, partial curve]",–
Cc1occc1C(=O)N/N=C/c1sc(N2CCOCC2)nc1-c1ccccc1,"inconclusive [activator, partial curve]",–
COc1ccccc1NC(=O)Cc1noc(CSc2nnc(C)s2)n1,"inconclusive [activator, partial curve, poor fit]",–
CC(=O)c1ccc(NC(=S)Nc2cccc(Cl)c2C)cc1,"inconclusive [activator, single point]",–
CC(C)N(Cc1nc(-c2ccccc2)no1)C(=O)c1ccc(Br)o1,"inconclusive [activator, partial curve, poor fit]",–

# — PubChem BioAssay AID1347071 (National Center for Advancing Translational Sciences (NCATS), 2019)
